Laboratory results: PubChem BioAssay AID686971 (National Center for Advancing Translational Sciences (NCATS), 2013)
Screen size: about 360,000 compounds; about 7,500 (2.1%) were called active. The shares of active, inactive and inconclusive entries below differ from those in the screen. Calls come from the whole dose curve; as a rule, active = well fitted cell-killing curve with a large enough effect; inconclusive = small, poorly fitted or top-dose-only effect, or effect the other way, or another doubt; inactive = no such curve, though single readings can be large or run the other way. No potency is given beside an inconclusive call; the fits are too rough.

Test: qHTS for induction of synthetic lethality in tumor cells producing 2HG: qHTS for the HT-1080-IDH1KD cell line;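 for activity, negative = toxicity: 0% = DMSO wells and -100% = cell-free medium wells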
Details: HT-1080 IDH1 knockdown viability, ATP luminescence, 48 h; activity, negative = toxicity: at 46.1 µM (top of the series) unless noted
How it was run: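 Using the IDH1-knockdown HT-1080 line run in the same batch and compound series as the NT line, viability after 48 h at 37 °C was determined by CellTiter-Glo luminescence and expressed as % activity.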
Potency is the fitted concentration of half-maximal effect; tags give direction and shape of the fitted curve.

| Structure (SMILES) | Potency | activity, negative = toxicity |
| --- | --- | --- |
| COc1ccccc1N(C)S(=O)(=O)c1ccc(C(=O)NCC2CCCCC2)cc1 | inactive | – |
| CC1CCC/C(=N/NC(=O)c2ccccc2-n2cccc2)C1 (stereo not drawn) | inconclusive [rising, partial curve, poor fit] | – |
| CCc1ccc(NC(=O)CSc2nc3ccccc3c(=O)n2CCCC(=O)N2CCCC2)cc1 | inactive | – |
| COc1cccc(CNc2nc3cc(-c4ccc(C(=O)N5CCN(C)CC5)cc4)sc3c(=O)n2C)c1 | active: 14.6 µM | – |
| Nc1nn(-c2ccccc2)c(N)c1N=Nc1cccc(F)c1 | active: 5.8 µM | – |
| Cc1ccc(NC(=O)c2cccs2)cc1 | inactive | – |
| Cc1cc(=O)n2[nH]c(N)c(N=Nc3ccccc3F)c2n1 | inconclusive [cytotoxic, single point] | – |
| Cc1ccc(S(=O)(=O)N(CC(=O)N=Nc2c(O)[nH]c3ccccc23)c2ccc(C)c(C)c2)cc1 | inconclusive [cytotoxic, partial curve] | – |
| CC[C@H](C)[C@H]1O[C@]2(CC[C@@H]1C)C[C@@H]1C[C@@H](CC=C(C)[C@@H](O[C@H]3C[C@H](OC)[C@@H](O[C@H]4C[C@H](OC)[C@@H](O)[C@H](C)O4)[C@H](C)O3)[C@@H](C)C=CC=C3CO[C@@H]4[C@H](O)C(C)=C[C@@H](C(=O)O1)[C@]34O)O2 | active: 4.11 µM | – |
| COc1cccc(/C=C2\SC(=S)N(C(C)C(=O)NC3C=CS(=O)(=O)C3)C2=O)c1 (stereo not drawn) | inconclusive [cytotoxic, single point] | – |
| O=S(=O)(Cc1ccccc1)c1cnc2ccccc2n1 | inconclusive [cytotoxic, single point] | – |
| Cc1ccc(N2CN=C(c3ccccc3)NC2=S)cc1 | inconclusive [cytotoxic, single point] | – |
| O=C(Cn1sc2ccccc2c1=O)Nc1ccc(Br)cc1 | inconclusive [cytotoxic, single point] | – |
| CCn1c(=O)c(CCC(=O)NCCN2CCOCC2)c(C)c2c(C)nn(-c3ccccc3)c21 | inactive | – |
| O=C(c1ccc(S(=O)(=O)N2CCCCC2)cc1)N1CCc2ccccc2C1 | inactive | – |
| CN(C)CCCNC(=O)/C(=C\c1ccc(-c2cccc([N+](=O)[O-])c2)o1)NC(=O)c1ccccc1 | inconclusive [cytotoxic, single point] | – |
| CC[C@]1(O)C[C@@H]2CN(CCc3c([nH]c4ccccc34)[C@@](C(=O)OC)(c3cc4c(cc3OC)N(C)[C@H]3[C@@](O)(C(=O)OC)[C@H](OC(C)=O)[C@]5(CC)C=CCN6CC[C@]43[C@@H]65)C2)C1 | active: 0.0366 µM | – |
| CC(=O)c1cccc(Nc2cc(C)nc3ccc(C)cc23)c1 | inconclusive [cytotoxic, partial curve] | – |
| O=C(O)c1cccc2c1C(=O)c1ccccc1-2 | inconclusive [rising, single point] | – |
| O=C(NCCNC(=O)c1ccccc1F)c1ccco1 | inactive | – |
| O=C(Nc1cccc(C(F)(F)F)c1)C1Cc2c(-c3ccccc3Oc3ccccc3)ccnc2O1 (stereo not drawn) | inconclusive [cytotoxic, single point] | – |
| CC1=C(C(=O)Nc2ccc(Cl)cc2)C(c2cccs2)n2nnnc2N1 (stereo not drawn) | inconclusive [cytotoxic, single point] | – |

| Structure (SMILES) | Potency | activity, negative = toxicity |
| --- | --- | --- |
| O=C(NC(Cc1ccccc1)c1ccc2c(c1)OCCCO2)c1ccc(F)cc1 (stereo not drawn) | inconclusive [cytotoxic, single point] | – |
| CC(=O)c1ccc(Nc2ccc([N+](=O)[O-])c3nonc23)cc1 | inconclusive [cytotoxic, partial curve] | – |
| COC(=O)c1ccccc1-c1ccc(/C=N/Nc2nc(N3CCCC3)nc(N3CCCC3)n2)o1 | inconclusive [cytotoxic, single point] | – |
| O=[N+]([O-])c1ccc(N/N=C/c2ccccc2)cc1 | inconclusive [cytotoxic, single point] | – |
| O=C(Nc1nc2cc3c(cc2s1)OCO3)C1CC1 | inactive | – |
| Cc1ccc(Cl)cc1N1CCN(C(=O)c2noc(C)c2[N+](=O)[O-])CC1 | inconclusive [cytotoxic, full curve] | – |
| Nc1cc(S(=O)(=O)c2ccc(N3CCCCC3)c(N)c2)ccc1N1CCCCC1 | inconclusive [cytotoxic, single point] | – |
| c1ccc(CCCNCCCn2cnc3c(OCc4ccccc4)ncnc32)cc1 | inconclusive [cytotoxic, partial curve] | – |
| Cc1cccc(Nc2nnc(SCC(O)=C(C#N)c3nc4ccccc4[nH]3)s2)c1 | inconclusive [cytotoxic, single point] | – |
| CCOC(=O)c1sc(=NC(=O)CCS(=O)(=O)c2ccccc2)n(C)c1C | – | inconclusive: 31.5% |
| Fc1ccc(-n2nnc(-c3cccnc3Cl)n2)cc1 | inactive | – |
| O=C(/C=C/c1ccc([N+](=O)[O-])cc1)Nc1ncc([N+](=O)[O-])s1 | inconclusive [cytotoxic, single point] | – |
| O=C(c1cc(-c2ccncc2)nc2ccccc12)N1CCN(c2ccccn2)CC1 | active: 5.62 µM | – |
| COC(=O)C1=CN(c2ccc(Oc3ccccc3)cc2)C(N)=C(C#N)C1c1ccccc1 (stereo not drawn) | inactive | – |
| COc1cc(-c2nc3ccc4ccccc4c3c3c2CCC3)cc(OC)c1O | inconclusive [cytotoxic, single point] | – |
| Cc1noc(C)c1-c1ccc(C(=O)Nc2ccc(C(C)C)cc2)c2occc12 | inconclusive [cytotoxic, partial curve] | – |
| COc1ccc(/C=C/C(=O)Nc2ccc(C)c(S(=O)(=O)N3CCOCC3)c2)cc1 | active: 20.6 µM | – |
| CC1CCC(C(O)(C(=O)O)C2CCCCC2)CC1C (stereo not drawn) | – | inconclusive: 26.3% |
| COC(=O)c1cc(S(=O)(=O)NCC2CCN(Cc3cc(C)ccc3C)CC2)cn1C | inactive | – |
| CCOC(=O)Nc1ccc2nc(N3CCCCCC3)sc2c1 | active: 8.2 µM | – |
| O=C(c1ccco1)N1CCN(c2cc(N3CCOCC3)c(F)cc2[N+](=O)[O-])CC1 | – | inconclusive: 2.3% [cytotoxic] |
